According to PubChem BioAssay AID894 (National Center for Advancing Translational Sciences (NCATS), 2007):
Out of some 150,000 compounds screened, about 6,500 (4.3%) were called active. Inconclusive results, whose numbers are uncertain, are shown with a selection of clear calls. The call rests on the fitted dose curve; in most records, active means well fitted inhibition curve with a large enough effect (not every such curve was filed as active); inconclusive means small, poorly fitted or top-dose-only effect, or another doubt; inactive means no such curve, though single readings can be large or run the other way. No potency is given beside an inconclusive call; the fits are too rough.

These compounds were tested against 15-hydroxyprostaglandin dehydrogenase [NAD(+)] (Homo sapiens) (UniProt P15428) (assay: qHTS Assay for Inhibitors of HPGD (15-Hydroxyprostaglandin Dehydrogenase)). Settings: purified HPGD, NADH fluorescence kinetic, PGE2 substrate; activity change, negative = inhibition: hits give low values.
UniProt P15428, sequence (P15428 whole entry, looked up): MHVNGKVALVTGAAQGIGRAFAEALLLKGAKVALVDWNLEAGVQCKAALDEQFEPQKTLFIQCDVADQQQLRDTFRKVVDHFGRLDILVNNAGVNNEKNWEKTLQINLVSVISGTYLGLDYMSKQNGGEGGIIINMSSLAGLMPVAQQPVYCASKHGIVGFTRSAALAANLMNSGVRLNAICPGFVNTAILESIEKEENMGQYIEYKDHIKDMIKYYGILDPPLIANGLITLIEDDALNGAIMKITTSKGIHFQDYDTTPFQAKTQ
Outline: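 NADH formation kinetics: reaction with 30 uM PGE2 and 1 mM NAD+ (final), 20 nM enzyme, Tris-HCl pH 8 with Tween 20, after 15 min compound preincubation at room temperature. Fluorescence change, last versus first of five reads.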
On the % scale 0 is the no-effect control and ±100 the full control effect; potency means the concentration at half of the fitted maximal effect; tags describe the fitted curve by direction and shape.

SMILES	Potency	activity change, negative = inhibition
Cc1cccc(-c2noc(-c3ccc(Cl)cc3[N+](=O)[O-])n2)c1	active: 14.1 µM	–
C=CCNc1nnc(SC2CC(=O)N(c3ccc(OCCC)cc3)C2=O)s1 (stereo not given)	active: 14.1 µM	–
CC(C)C(=O)N1N=C(c2ccc(NS(C)(=O)=O)cc2)CC1c1cccs1 (stereo not given)	inconclusive [inhibitor, partial curve]	–
CCOC(=O)C1=C(c2ccccc2)O/C(=C(/C(=O)OC)C(F)(F)F)S1	inconclusive [inhibitor, partial curve]	–
C=C1C(=O)[C@]23[C@H](O)[C@H]1CC[C@H]2[C@@]12COC3(O)[C@H](O)[C@@H]1C(C)(C)CC[C@@H]2O	inconclusive [inhibitor, single point]	–
O=S(=O)(c1ccccc1)N1CCC2(CC1)CN(c1ccccc1)C2	–	inactive: -7.71%
CC(C)C(=O)c1cn(CC(=O)NCc2ccc3c(c2)OCO3)c2ccccc12	–	inactive: -16.6%
Brc1ccc2c(c1)OCCOCCOCCOCCOCCOCCO2	–	inactive: -2.82%
CCOc1ccccc1NC(=S)NNS(=O)(=O)c1c(C)cc(C)cc1C	–	inactive: -15.6%
O=C(Cn1c(=S)[nH]c2ccccc21)c1ccccc1	–	inactive: -7.69%
CCN(CC)CCOC(=O)/C=C/c1ccccc1OC	inconclusive [inhibitor, partial curve]	–
Cc1csc(/C(=N\O)c2csc(C)n2)n1	–	inactive: -10.1%
CC(=O)N(c1nc(CCl)cs1)c1c(C)cc(C)cc1C	–	inactive: -6.03%
COCCN1Cc2cccc(C(=O)NCc3ccc4c(c3)OCO4)c2C1=O	inconclusive [inhibitor, partial curve]	–
CCN(CC)S(=O)(=O)c1ccc(NC(=O)c2ccccn2)cc1	inconclusive [inhibitor, single point]	–
O=C(NC(=S)Nc1ccc2[nH]ncc2c1)c1ccccc1	inconclusive [inhibitor, single point]	–
N#Cc1cc([N+](=O)[O-])c(-n2nnc3ccccc32)c([N+](=O)[O-])c1	active: 28.2 µM	–
O=C(CC(=O)c1cc(Cl)ccc1O)c1ccccc1	active: 25.1 µM	–
Cc1cc(/C=C2/SC(=O)NC2=O)c(C)n1-c1ccc(N2CCOCC2)cc1	active: 8.91 µM	–
CCOC(=O)c1sc2ncnc(NCC(c3cccs3)N(C)C)c2c1C (stereo not given)	inconclusive [inhibitor, partial curve]	–
N#Cc1c(-c2cccc(F)c2)cc(-c2ccccc2)nc1Br	active: 17.8 µM	–
CCOC(=O)c1ccc(-n2c(C)nc3c(cnn3-c3ccc(Cl)cc3)c2=O)cc1	–	inactive: -0.278%
Cc1nnc(SCc2ccc3c(c2)OCO3)s1	inconclusive [inhibitor, partial curve]	–
COc1ccc(/C=C/c2cc(-c3ccc(C)cc3)o[n+]2C)cc1	inconclusive [inhibitor, full curve, poor fit]	–
c1ccc(Cc2nnc3sc(-c4cccs4)nn23)cc1	active: 8.91 µM	–

SMILES	Potency	activity change, negative = inhibition
N#Cc1nc(-c2ccc(OCc3ccccc3)cc2)oc1N1CCC(C(N)=O)CC1	inconclusive [inhibitor, partial curve]	–
Clc1ccc(-c2cc3ccccc3nc2N2CCCC2)cc1	inconclusive [inhibitor, single point]	–
N#Cc1nc(-c2cccc3ccccc23)oc1NCCN1CCOCC1	inconclusive [inhibitor, partial curve]	–
CC1(C)CC2CC(C)(CN2C(=O)COc2cccc3ccccc23)C1 (stereo not given)	active: 31.6 µM	–
Oc1ccc(Cl)cc1C1=NNC(c2ccc(Cl)cc2)C1 (stereo not given)	inconclusive [inhibitor, partial curve]	–
O=C(NCc1ccccc1)c1cc2nc(C3CC3)cc(C(F)(F)F)n2n1	–	inactive: -22.5%
CCN(CC)c1ccc(NC(=O)COC(=O)c2ccc3ccccc3n2)cc1	–	inactive: -27%
O=C(CSc1nnc(SCC(=O)NCc2ccc3c(c2)OCO3)s1)NCc1ccc2c(c1)OCO2	–	inactive: -3.62%
CCOC(=O)CC(=O)CSc1nnc2sc3ccccc3n12	inconclusive [inhibitor, partial curve]	–
N=c1c(C(=O)NCc2ccco2)cc2c(=O)n3ccccc3nc2n1Cc1ccc(Cl)cc1	inconclusive [inhibitor, full curve]	–
O=C(CSc1nc2nc(-c3cccs3)cc(C(F)(F)F)c2c(=O)[nH]1)NCc1ccco1	inconclusive [inhibitor, full curve]	–
COc1ccc(OC)c(C2=NOC(C(=O)NCC3CCCO3)C2)c1 (stereo not given)	inconclusive [inhibitor, partial curve]	–
COCC(=O)N1CCC2(CC1)CCN(c1ccccn1)CC2	inconclusive [inhibitor, partial curve]	–
CCOC(=O)C1=C(Cn2cnc3ccccc32)NC(=O)NC1c1cc(C)ccc1C (stereo not given)	–	inactive: -1.06%
O=C(/C=C\c1ccc2c(c1)OCO2)Nc1nnc(SCC(=O)OCc2ccccc2)s1	inconclusive [inhibitor, full curve]	–
N#CC(C#N)=C1C=CC=CN1/C(=C\c1ccccc1Cl)C(=O)c1ccccc1	active: 7.94 µM	–
COC(=O)[C@@]1(Cc2ccc(F)cc2)[C@H]2c3cc(C(=O)N4CCCC4)n(CCN4CNCC4=O)c3C[C@H]2CN1C(=O)c1ccccc1	–	inactive: -8.25%
COc1ccc(C2Nc3ccccc3C(=O)N2c2ccc(F)cc2)cc1CSc1ccccn1 (stereo not given)	inconclusive [inhibitor, partial curve]	–
O=C(CNS(=O)(=O)c1ccccc1)Nc1ccc(C(F)(F)F)cc1	–	inactive: -8.88%
CCCn1nnc(NC(=O)c2ccc(Cl)cc2Cl)n1	–	inactive: -22.2%
Cc1sc(-c2ccncc2)nc1OC(=O)c1ccc(Cl)cc1	–	inactive: -11.5%
Cc1ccc(NC(=O)CCCN2C(=O)c3cccc4cccc(c34)C2=O)cc1	inconclusive [inhibitor, single point]	–
CCOC(=O)c1[nH]cc(-c2ccccc2)c1N1CCOCC1	active: 3.98 µM	–
Cc1ccc(C(=O)CSc2ccccn2)cc1	inconclusive [inhibitor, partial curve]	–
CCOc1ccc2[nH]c(C)c(CN3CCN(CC)CC3)c(=O)c2c1	inconclusive [inhibitor, partial curve]	–

SMILES	Potency	activity change, negative = inhibition
CN1C(=O)/C(=C/c2ccccc2OCc2cccc(F)c2)NC1=S	active: 4.47 µM	–
CC(C)Cc1csc(NC(=O)c2ccccc2Cl)c1C(=O)O	active: 14.1 µM	–
Cc1ccc(NC2=C(NC(=O)c3ccccc3)C(=O)c3ccccc3C2=O)cc1Cl	active: 20 µM	–
CC(=O)c1cccc2c(O)c(C3=Nc4ccccc4C3=O)[nH]c12	active: 14.1 µM	–
OCCn1nc2c3ccccc3nc-2n(-c2ccccc2)c1=S	inconclusive [inhibitor, single point]	–
COc1ccc(C(=O)N2CCC[C@@]3(CCN(Cc4ccc(C#N)cc4)C3)C2)cc1	active: 15.8 µM	–
CN(C)c1ccc(N/C=C/C(=O)c2ccco2)cc1	active: 35.5 µM	–
O=C(CCc1ccccc1)NC(=S)Nc1ccc(S(=O)(=O)N2CCOCC2)cc1	–	inactive: -4.52%
CCOc1ccc(NS(=O)(=O)c2ccc3[nH]cc(C(=O)NCCOC)c(=O)c3c2)cc1	–	inactive: -8.48%
Cc1ccc(C)c(/C(O)=C2\C(=O)C(=O)N(CCCn3ccnc3)C2c2ccncc2)c1 (stereo not given)	active: 28.2 µM	–
Cn1c(SCc2nc3ccccc3[nH]2)nnc1-c1ccccn1	–	inactive: 0.776%
CCOC(=O)C1C(=O)NC(SCC(N)=O)=C(C#N)C1c1ccccc1OCC (stereo not given)	inconclusive [inhibitor, single point]	–
CCN(CC)C(=S)SCC(=O)c1ccc(Br)cc1	inconclusive [inhibitor, partial curve]	–
COC(=O)c1ccc(C(NC(=O)OCc2ccccc2)/C(=C/[C@@H](C)C(=O)NCc2cc(C)n(C)n2)c2cccnc2)cc1 (stereo not given in full)	–	inactive: -2.41%
Cc1ccc(S(=O)(=O)N(CC(=O)N=Nc2c(O)[nH]c3ccccc23)c2cccc(C)c2)cc1	inconclusive [inhibitor, partial curve]	–
CCOC(=O)c1ccc(-c2cccc(C(F)(F)F)c2)nc1C	–	inactive: -19.6%
COc1ccc(C(=O)Nc2nnc(-c3cccs3)s2)cc1	inconclusive [inhibitor, partial curve]	–
O=C1OCCN1C(=O)[C@H]1[C@H](c2ccc(Cl)cc2)C(c2cccc(Cl)c2)=NN1c1ccc(Br)cc1	inconclusive [inhibitor, partial curve]	–
O=C(CSc1ccccc1C(=O)NCc1ccccc1)NC1CCCCCCC1	active: 20 µM	–
O=C(/C=C\C=C/c1ccc2c(c1)OCO2)N1CCCCC1	active: 10 µM	–
C=CCN1/C(=C(\C#N)C2=NS(=O)(=O)c3ccccc32)N(C)c2ccccc21	active: 14.1 µM	–
C[C@H]1Cc2c(COc3ccccc3)nc3c(c2CO1)CN(C(=O)C1CC1)CC3	–	inactive: 0.0354%
COC(=O)c1ccccc1NC(=O)CSc1nnnn1-c1ccc(C)cc1C	–	inactive: -18.7%
CCOC(=O)c1sc(=S)n(-c2ccc3c(c2)OCO3)c1N	active: 7.94 µM	–
O=C(C1CCCN(S(=O)(=O)c2cccc3nonc23)C1)N1CCN(c2ccccc2Cl)CC1 (stereo not given)	active: 14.1 µM	–
